Reference: patent US20250376539A1 (KIRA PHARMACEUTICALS SUZHOU, published 2025)

B1: 3.2 H2-10 FH (Factor H 1-5 fusion with the representative pH dependent 3.2 H2-10) (other)
chain 1: EVQLLESGGGLVQPGGSLRLSCAASGFTFRHYAMSWVRQAPGKGLEWVSLISGSGASTHYADSVKGRFTISRDNSENMLYLQMNSLRAEDTAVYYCAKDSLAVAGSEYFQHWGQGTLVTVSASTKGPSVFPLAPCSRSTSESTAALGCLVKDYFPEPVTVSWNSGALTSGVHTFPAVLQSSGLYSLSSVVTVPSSSLGTKTYTCNVDHKPSNTKVDKRVESKYGPP[human IgG4 Fc with S228P M428L N434A (EU numbers) not shown]EDCNELPPRRNTEILTGSWSDQTYPEGTQAIYKCRPGYRSLGNIIMVCRKGEWVALNPLRKCQKRPCGHPGDTPFGTFTLTGGNVFEYGVKAVYTCNEGYQLLGEINYRECDTDGWTNDIPICEVVKCLPVTAPENGKIVSSAMEPDREYHFGQAVRFVCNSGYKIEGDEEMHCSDDGFWSKEKPKCVEISCKSPDVINGSPISQKIIYKENERFQYKCNMGYEYSERGDAVCTESGWRPLPSCEEKSCDNPYIPNGDYSPLRIKHRTGDEITYQCRNGFYPATRGNTAKCTSTGWIPAPRCTLKP
chain 2: SYVLTQAPSVSVAPGQTARITCGGNYFGGKSVHWYQQRPGQAPVLVVYDDSDRPSGIPERFSGSKSGNTATLAISRVEAGDEAAYYCQVYDTSSDHWVFGGGTKLTVL
B2: 3.2FH (Factor H 1-5 fusion with 3.2; FH1-5 fused to the heavy chain C-terminus) (other)
heavy: EVQLLESGGGLVQPGGSLRLSCAASGFTFRHYAMSWVRQAPGKGLEWVSLISGSGASTFYADSVKGRFTISRDNSENMLYLQMNSLRAEDTAVYYCAKDSLAVAGSEYFQHWGQGTLVTVSSASTKGPSVFPLAPCSRSTSESTAALGCLVKDYFPEPVTVSWNSGALTSGVHTFPAVLQSSGLYSLSSVVTVPSSSLGTKTYTCNVDHKPSNTKVDKRVESKYGPP[human IgG4 Fc with S228P M428L N434A (EU numbers) not shown]EDCNELPPRRNTEILTGSWSDQTYPEGTQAIYKCRPGYRSLGNIIMVCRKGEWVALNPLRKCQKRPCGHPGDTPFGTFTLTGGNVFEYGVKAVYTCNEGYQLLGEINYRECDTDGWTNDIPICEVVKCLPVTAPENGKIVSSAMEPDREYHFGQAVRFVCNSGYKIEGDEEMHCSDDGFWSKEKPKCVEISCKSPDVINGSPISQKIIYKENERFQYKCNMGYEYSERGDAVCTESGWRPLPSCEEKSCDNPYIPNGDYSPLRIKHRTGDEITYQCRNGFYPATRGNTAKCTSTGWIPAPRCTLKP
light: SYVLTQAPSVSVAPGQTARITCGGNYFGGKSVHWYQQRPGQAPVLVVYDDSDRPSGIPERFSGSKSGNTATLAISRVEAGDEAAYYCQVYDTSSDHWVFGGGTKLTVLGQPKAAPSVTLFPPSSEELQANKATLVCLISDFYPGAVTVAWKADSSPVKAGVETTTPSKQSNNKYAASSYLSLTPEQWKSHRSYSCQVTHEGSTVEKTVAPTECS
notes: Antibody-factor H fusion protein

Tests used:
[1] = molecular target: T1, recombinant human complement C2 (NP_000054.2), C-terminal 6His-tag, made in house (CHO cell expression) (human, UniProt P06681 21-752); assay: BLI (Gator); ratio of dissociation at pH 5.8 to pH 7.4
T1 construct: a linker before the tag is not described; also called human C2; Human C2
T1 sequence: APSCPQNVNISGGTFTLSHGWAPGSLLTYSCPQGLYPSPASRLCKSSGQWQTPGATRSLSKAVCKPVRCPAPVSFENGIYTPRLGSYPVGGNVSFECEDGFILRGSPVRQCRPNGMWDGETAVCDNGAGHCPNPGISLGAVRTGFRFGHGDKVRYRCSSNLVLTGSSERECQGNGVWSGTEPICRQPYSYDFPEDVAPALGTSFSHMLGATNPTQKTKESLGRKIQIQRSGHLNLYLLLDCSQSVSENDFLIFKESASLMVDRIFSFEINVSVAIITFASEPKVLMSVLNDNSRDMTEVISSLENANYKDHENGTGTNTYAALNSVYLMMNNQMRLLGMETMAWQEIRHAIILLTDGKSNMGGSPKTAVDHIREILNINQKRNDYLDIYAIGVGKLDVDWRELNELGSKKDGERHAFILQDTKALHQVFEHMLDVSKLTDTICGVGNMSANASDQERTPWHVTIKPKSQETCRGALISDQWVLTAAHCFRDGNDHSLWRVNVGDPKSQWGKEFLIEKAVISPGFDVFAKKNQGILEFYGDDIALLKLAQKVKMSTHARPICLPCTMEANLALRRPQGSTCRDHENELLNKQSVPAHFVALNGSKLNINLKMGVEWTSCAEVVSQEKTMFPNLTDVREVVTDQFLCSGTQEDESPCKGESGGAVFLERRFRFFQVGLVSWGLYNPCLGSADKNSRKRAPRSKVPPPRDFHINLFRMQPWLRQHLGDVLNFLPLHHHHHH
Description: (§1) The histidine mutant constructs in Table 4 were tested for their pH-dependent dissociation from human C2. Probe-immobilized anti-C2 antibodies were incubated with C2 at pH 7.4 for 600s, followed by a 600s dissociation period in K Buffer at pH 7.4 or pH 5.8. The data were processed and analyzed by the Gator evaluation software.
(§2) Non-fusion mAb were used for comparison.

[2] = molecular target: T2, recombinant cynomolgus (cyno) complement C2 (XP_005553508.1), C-terminal 6His-tag, made in house (CHO cell … (cynomolgus monkey (Macaca fascicularis), UniProt P06681 21-752 (human entry))); assay: as above
T2 construct: also called cyno C2; Cyno C2
T2 chain: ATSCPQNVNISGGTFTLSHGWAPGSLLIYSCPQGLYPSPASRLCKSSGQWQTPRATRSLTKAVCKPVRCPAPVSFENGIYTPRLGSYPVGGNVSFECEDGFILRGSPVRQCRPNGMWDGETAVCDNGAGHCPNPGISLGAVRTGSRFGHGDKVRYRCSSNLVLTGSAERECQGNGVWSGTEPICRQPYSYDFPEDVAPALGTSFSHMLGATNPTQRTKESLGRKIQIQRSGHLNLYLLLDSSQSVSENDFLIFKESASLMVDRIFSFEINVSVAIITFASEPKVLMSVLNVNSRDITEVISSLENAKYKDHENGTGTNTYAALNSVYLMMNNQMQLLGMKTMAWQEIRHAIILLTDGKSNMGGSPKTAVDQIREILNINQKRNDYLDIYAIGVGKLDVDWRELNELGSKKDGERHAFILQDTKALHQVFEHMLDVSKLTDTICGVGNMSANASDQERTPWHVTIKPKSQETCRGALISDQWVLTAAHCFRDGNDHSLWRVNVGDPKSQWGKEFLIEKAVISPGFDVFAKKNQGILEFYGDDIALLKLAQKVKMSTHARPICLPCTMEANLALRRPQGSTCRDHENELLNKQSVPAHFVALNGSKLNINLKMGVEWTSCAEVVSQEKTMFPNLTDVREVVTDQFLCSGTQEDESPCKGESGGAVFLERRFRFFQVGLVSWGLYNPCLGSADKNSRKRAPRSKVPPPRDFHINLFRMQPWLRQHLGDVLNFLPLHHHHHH
Description: as §1, §2

[3] = molecular target: T1, recombinant human complement C2 …; assay: BLI (Gator), antibody on probe; 600 s association at pH 7.4, 600 s dissociation at pH 7.4
Description: as §1, §2

[4] = molecular target: T2, recombinant cynomolgus (cyno) …; assay: as above
Description: as §1, §2

[5] = molecular target: T1, recombinant human complement C2 …; assay: BLI (Gator), antibody on probe; 600 s association at pH 7.4, 600 s dissociation at pH 5.8
Description: as §1, §2

[6] = molecular target: T2, recombinant cynomolgus (cyno) …; assay: as above
Description: as §1, §2

[7] = molecular target: T1, recombinant human complement C2 …; assay: binding kinetics, neutral pH (BLI presumed)
[8] = molecular target: T2, recombinant cynomolgus (cyno) …; assay: binding kinetics (BLI presumed)

Binder | Fold dissociation pH 5.8/pH 7.4 [1] [fold] | Fold dissociation pH 5.8/pH 7.4 [2] [fold] | Dissociation (%) pH 7.4 [3] [%] | Dissociation (%) pH 7.4 [4] [%] | Dissociation (%) pH 5.8 [5] [%] | Dissociation (%) pH 5.8 [6] [%] | Kd [7] [nM] | koff [7] [s⁻¹] | kon [7] [M⁻¹ s⁻¹] | Kd [8] [nM] | koff [8] [s⁻¹] | kon [8] [M⁻¹ s⁻¹]
B1 | 11 | 8.53 | 5.11 | 7.19 | 56.1 | 61.4 | 0.0539 | 1.85e-05 | 343000 | 0.129 | 5.63e-05 | 436000
B2 | 2.13 | 3.25 | 4.91 | 4.93 | 10.5 | 16 | – | – | – | – | – | –
